Laboratory results from PubChem BioAssay AID1240 (Sanford-Burnham Center for Chemical Genomics, 2008).
Hit rate of the full screen: of about 50,000 compounds, about 800 (1.6%) showed an effect of 50% or more. The list shows a part of the results.

The molecules below were run against Bcl-2-like protein 10 (Homo sapiens) (UniProt Q9HD36) (assay: TR3 peptide-Bcl-B binding displacers, biochemical primary FP assay, phenotype converters (AID 1240;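 also: 0% = Bcl-B with tracer peptide and DMSO and 100% = tracer peptide lacking Bcl-B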)). Settings: GST-Bcl-B / FITC-TR3 peptide fluorescence polarization; stronger effect = higher value; compound at 3.75 mg/L.
Chain of UniProt Q9HD36 (Q9HD36 whole entry, looked up): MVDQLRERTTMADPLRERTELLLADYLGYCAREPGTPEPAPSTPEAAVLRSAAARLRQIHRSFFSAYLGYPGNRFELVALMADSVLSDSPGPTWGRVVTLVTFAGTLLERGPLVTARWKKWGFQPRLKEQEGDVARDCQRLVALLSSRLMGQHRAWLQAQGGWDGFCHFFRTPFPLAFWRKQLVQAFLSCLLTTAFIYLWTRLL
With `O=C(O)c1ccc(NS(=O)(=O)c2cccc3cccnc23)cc1` the displacement was 4.6%.
`COc1ccc(Cl)cc1NC(=O)C1=C(C)NC(=S)NC1c1cccc(Cl)c1` (configuration not stated) gave a displacement of 12.9%.
`CN1C(=O)NC(=O)/C(=C\c2cc(Cl)c(OCC(=O)O)c(Cl)c2)C1=O` gave a displacement of -3.5%.
With `COc1ccc(-n2c(=O)c3c4c(sc3n3c(=S)[nH]nc23)CCCC4)cc1` the displacement was 2.3%.
For `Cc1onc(-c2c(Cl)cccc2Cl)c1C(=O)Nc1nc(-c2ccc3ccccc3c2)cs1`, the displacement was 16.2%.
`Cc1cc(-c2ccco2)c(C#N)c(SCC(=O)c2ccc(O)c(O)c2)n1` gave a displacement of -10.4%.
`Brc1ccc(C(Cc2ccccc2)Nc2ccccn2)cc1` (configuration not stated) was tested, and the displacement was -0.4%.
With `COc1ccc(-c2cc(C(F)(F)F)n3nc(C(=O)N4CCOCC4)c(Cl)c3n2)cc1` the displacement was -9.5%.
For `CC(C)(C)c1ccc(S(=O)(=O)Nc2ccccc2[N+](=O)[O-])cc1`, the displacement was 9.9%.
For `CN(C)c1ccc(/C=N/NC(=O)c2ccccc2O)cc1[N+](=O)[O-]`, the displacement was 6.1%.
In the case of `Cc1nc2sccn2c1C(=O)NN=C1CCCCC1`, the displacement is reported as 3.8%.
`Cc1ccccc1NC(=O)c1c(NC(=O)c2ccccc2Br)sc2c1CCCCC2` was tested, and the displacement was 76.6%.
Molecule `Cc1nn(C)c(C)c1NC(=O)c1ccc(-c2ccccc2)cc1` has a displacement of -0.8%.
`CN1CCN(C(=O)c2ccc(S(=O)(=O)N3CCOCC3)cc2)CC1` was tested, and the displacement was -2.9%.
`N#CSCCCCOc1ccccc1F` gave a displacement of 6.3%.
With `O=S(=O)(Cc1ccccc1)c1nc2ccccc2[nH]1` the displacement was 8.9%.
Work on `CCCCOC(=O)c1ccc(NC(=O)c2cncc(Br)c2)cc1` yielded a displacement of 16.4%.
`Clc1cccc(/C=N/N2CCN(C(c3ccccc3)c3ccccc3)CC2)c1` showed a displacement of -4%.
Work on `Cc1ccc(NC(=O)C(C)N2C(=O)c3ccccc3C2=O)c(C)c1` (configuration not stated) yielded a displacement of 1.2%.
For `O=C1c2ccc(-c3nc4ccccc4c(=O)o3)cc2C(=O)N1c1cccc(I)c1`, the displacement was -10.6%.
Work on `Cc1cc([N+](=O)[O-])c2[nH]c(C(=O)N/N=C/c3ccccn3)c(-c3ccccc3)c2c1` yielded a displacement of 2.7%.
`Cc1ccccc1-c1cc(C(=O)NC(C)C)c2ccccc2n1` was tested, and the displacement was -10.7%.
For `O=C1/C(=C/c2ccc(Cl)cc2)SC(=S)N1CCS(=O)(=O)O`, the displacement was 3.2%.
For `CCc1ccc(-c2csc(-c3cc4cccc(OC)c4oc3=O)n2)cc1`, the displacement was -23.6%.
`COc1ccc(C2=NN(C(C)=O)C(c3ccccc3OC)C2)cc1` (configuration not stated) gave a displacement of 2.3%.
`COc1ccc(C(=O)Nc2ccc(/C=C/C(=O)c3ccccc3)cc2)cc1` was tested, and the displacement was -7.8%.
Molecule `Cc1cc(C)c(C)c(C=C2C(=O)c3ccccc3C2=O)c1C` has a displacement of -8.6%.
Work on `COc1cccc(C(=O)Nc2cccc(-c3cc4ccccc4oc3=O)c2)c1` yielded a displacement of -11.3%.
Work on `Cc1ccc(-c2ccc(OC(=O)CCN3C(=O)c4ccccc4C3=O)cc2)cc1` yielded a displacement of -7.9%.
`CCC(C(=O)Nc1ccccc1)c1ccccc1` (configuration not stated) gave a displacement of -0.8%.
`N/C(=N\c1nc(C(F)(F)F)cc(=O)[nH]1)Nc1ccc(-c2ccccc2)cc1` was tested, and the displacement was 1.9%.
Molecule `O=Cc1ccc(OCC(O)Cn2c3ccccc3c3ccccc32)cc1` (configuration not stated) has a displacement of 14.4%.
`O=c1[nH]c(=O)n(-c2cccc(C(F)(F)F)c2)c(O)c1C=C1C=CC=N1` was tested, and the displacement was 6.3%.
`CCOC(=O)c1ccc(NC(=O)COc2ccc(OC)cc2)cc1` showed a displacement of 6.5%.
With `Cn1c(NCc2ccccc2)cc(=O)n(C)c1=O` the displacement was 3.7%.
Molecule `O=[N+]([O-])c1ccc(N=Cc2cc(I)cc(I)c2O)c(O)c1` has a displacement of -2.2%.
`Cc1ccc(C)c(NC(=O)c2sc3cc(C)ccc3c2Cl)c1` was tested, and the displacement was 7.6%.
`COc1cc(C=C2C(=O)c3ccccc3C2=O)ccc1OCc1ccc(F)cc1` was tested, and the displacement was 88.7%.
`COc1cccc(CNc2ccc3c(c2)ncn3-c2ccccc2)c1OC` was tested, and the displacement was 12%.
For `CCN1C(=O)/C(=C\c2cccc(C(F)(F)F)c2)SC1=S`, the displacement was 10.5%.
Work on `COc1cc(OC)cc(C(=O)Nc2c(C)cccc2C)c1` yielded a displacement of 20.4%.
Work on `Cc1cc(C)c(/C=C2/SC(N)=NC2=O)c(C)c1` yielded a displacement of 4.6%.
Work on `Brc1ccccc1OCCCCCCN1CCOCC1` yielded a displacement of 10%.
`Cc1ccc(/C(N)=N/OC(=O)c2ccccc2F)cc1` showed a displacement of -14.1%.
Molecule `CCOc1cc(C=NN2CCN(Cc3ccccc3)CC2)ccc1O` has a displacement of -4%.
`CC(C)OC(=O)c1c(-c2ccccc2Cl)csc1N` showed a displacement of -1.9%.
Molecule `O=C(Nc1ccccc1C(=O)O)c1ccc(Br)c(S(=O)(=O)NCc2ccccc2)c1` has a displacement of -5.1%.
Work on `O=C(/C=C/c1cccc([N+](=O)[O-])c1)Nc1ccc2nn(-c3ccccc3)nc2c1` yielded a displacement of 0.4%.
Molecule `N#CC1=C(SCC(=O)OCc2ccccc2)NC(=O)CC1c1cccc2ccccc12` (configuration not stated) has a displacement of 7.8%.
With `O=C(COc1ccccc1)Nc1cccc2nsnc12` the displacement was 1.2%.
`CC(=O)c1cccc(NC(=O)c2ccc(-c3cccc(Cl)c3)o2)c1` showed a displacement of 1.1%.
For `CC1CCN(S(=O)(=O)c2ccc(NC(=S)Nc3ccccc3)cc2)CC1`, the displacement was 7.6%.
Molecule `CCOc1ccccc1NC(=O)c1c(NC(=O)COc2ccc(Cl)cc2)sc2c1CCC2` has a displacement of -8.2%.
Molecule `COc1ccc(S(=O)(=O)Nc2ccc(Oc3ccccc3)cc2)cc1OC` has a displacement of 4.5%.
For `O=C(Nc1c(C(=O)N2CCN(Cc3ccccc3)CC2)cnn1-c1ccccc1)c1cccc(F)c1`, the displacement was 3%.
`CC1=NNC(=O)C1CC(=O)N/N=C/c1cccc([N+](=O)[O-])c1` (configuration not stated) gave a displacement of -3.4%.
Molecule `CC(=O)Nc1ccc(N/C(C)=C/C(=O)c2ccc(Br)cc2)cc1` has a displacement of 5.6%.
For `Cc1nn(CC(=O)Nc2cccc(O)c2)c(=O)c2ccccc12`, the displacement was 7.1%.
Molecule `COc1cc(NC(=O)c2ccccc2[N+](=O)[O-])cc(OC)c1` has a displacement of -0.8%.
Work on `COc1ccccc1NC(=O)C1=C(C)NC(=S)NC1c1cccc(Cl)c1` (configuration not stated) yielded a displacement of -24.4%.
`COc1ccc(C(=O)O/N=C(\N)c2ccc(OC)c(OC)c2)cc1` showed a displacement of -5%.
In the case of `COc1ccc(C(=O)Nc2cc(Cl)ccc2Cl)cc1NC(C)=O`, the displacement is reported as 2.3%.
Work on `CNS(=O)(=O)c1cc(S(=O)(=O)NC)c2cccc3c2c1NC3=O` yielded a displacement of 4.7%.
Molecule `C=C(C)CC1(O)CC(c2ccccc2)NC(c2ccccc2)C1CC` (configuration not stated) has a displacement of 3%.
In the case of `Nc1sc2c(c1C(=O)Nc1ccc(Br)cc1)CCCC2`, the displacement is reported as 25.3%.
Molecule `Cc1cccc(NC(=S)NC(=O)c2ccco2)c1` has a displacement of -6.4%.
Molecule `O=C1NC(=O)N(c2ccc(Br)cc2)C(=O)/C1=C/c1ccco1` has a displacement of 30.1%.
Molecule `Oc1c(I)cc(I)cc1C=Nc1ccc2c(c1)oc1ccccc12` has a displacement of 8.9%.
Molecule `O=C(Nc1ccc(N=Cc2ccc([N+](=O)[O-])cc2)cc1)c1ccccc1Br` has a displacement of 3.5%.
`O=C(NCCCN1CCOCC1)C(=O)Nc1ccc(F)cc1` showed a displacement of 11.2%.
For `COc1ccccc1NCN1C(=O)S/C(=C/c2ccccc2F)C1=O`, the displacement was 10.5%.
With `Cc1c(C(=O)Nc2ccc(N3CCOCC3)cc2)cccc1[N+](=O)[O-]` the displacement was -2.9%.
`COc1ccc(N(CC(=O)Nc2ccc(Br)cc2)S(=O)(=O)c2ccc(C)cc2)cc1` was tested, and the displacement was 1.8%.
`O=C1NC(=O)N(c2ccc(Cl)cc2)C(=O)/C1=C/c1ccsc1` was tested, and the displacement was -24.1%.
`Cn1c(=O)c(-c2ccccc2N)nc2cc3ccccc3cc21` showed a displacement of 33.6%.
For `CC1(C)Cc2ccccc2C(Sc2ccc(N)cc2)=N1`, the displacement was 10.5%.
Molecule `Cc1ccc(OCC(=O)Nc2ccccc2-c2ccccc2)cc1` has a displacement of 6.8%.
`Cc1nc(SCC(=O)c2ccccc2)c(C#N)c(C)c1C` showed a displacement of 8.3%.
For `COc1cc(CN2CCN(C3CCCCCC3)CC2)cc(OC)c1OC`, the displacement was -0.4%.
In the case of `COc1ccc(CNC(=O)CCc2ccccc2)cc1`, the displacement is reported as -0.5%.
`CN1CCN(C(=O)/C(=C/c2cccnc2)NC(=O)c2cccc(Br)c2)CC1` gave a displacement of 3.6%.
`Cc1onc(-c2c(Cl)cccc2Cl)c1C(=O)Nc1ccc(S(=O)(=O)Nc2nccs2)cc1` gave a displacement of 2.2%.
`COc1ccc(C(=O)Nc2ccc(Cl)c(-c3nc4ccccc4[nH]3)c2)cc1` was tested, and the displacement was -0.4%.
With `CCOc1cc(C=O)cc(I)c1OC(C)C` the displacement was -9.1%.
With `COC(=O)c1cc(C)sc1NC(=O)C1(C)CC1(Br)Br` (configuration not stated) the displacement was -42.7%.
For `N/C(=N\OC(=O)CCc1ccccc1)c1ccc([N+](=O)[O-])cc1`, the displacement was -6.7%.
Work on `CC(O)CNC(=O)C(=O)Nc1ccc(N(C)C)cc1` (configuration not stated) yielded a displacement of 12.9%.
Molecule `Cc1cc(=O)n(-c2nc(-c3ccccc3)cc(-c3ccc(Br)cc3)n2)[nH]1` has a displacement of -12.6%.
In the case of `O=C(c1cc2nc(-c3ccccc3)cc(-c3ccccc3)n2n1)N1CCOCC1`, the displacement is reported as -2.8%.
In the case of `O=C1c2ccccc2-c2nc3cc(Br)cnc3nc21`, the displacement is reported as 11%.
Work on `c1ccc(Nc2cccc3nonc23)cc1` yielded a displacement of -15.8%.
With `COc1ccc(C2CC(=O)N(CCCN(C)C)C2)cc1` (configuration not stated) the displacement was -10.9%.
For `Cc1ccc(CNC(=O)C(=O)NCc2ccc(Cl)cc2)cc1`, the displacement was -0.1%.
`CC1(C2CC2)NN=C(c2ccccc2)S1` (configuration not stated) was tested, and the displacement was -5%.
`CCCCCCNc1cc(C)oc(=O)c1C(C)=O` was tested, and the displacement was -7.3%.
Molecule `O=C1CC(NCc2ccc3c(c2)OCO3)C(=O)N1c1ccc(OC(F)(F)F)cc1` (configuration not stated) has a displacement of -15.6%.
Molecule `CCN(CC)C(=Nc1ccccc1)n1cncn1` has a displacement of 6.2%.
For `CCc1c(C)c2ccc(OC)c(C)c2oc1=O`, the displacement was -4%.
`Cc1ccc(OCCOc2ccc(C=O)cc2)cc1C` gave a displacement of 12.7%.
`O=C(Nc1cccc([N+](=O)[O-])c1)c1cc2ccccc2o1` gave a displacement of -4.1%.
In the case of `O=C(CSc1nc2ccccc2s1)c1ccc(-c2ccccc2)cc1`, the displacement is reported as -1.1%.
Work on `COc1cccc(/C=N/N2CCN(Cc3cccc4ccccc34)CC2)c1OC` yielded a displacement of -9.5%.
Molecule `CC(C)Oc1ccc(NC(=O)C23CC4CC(CC(C4)C2)C3)cc1` has a displacement of 15.9%.
Molecule `Cc1cccc(/C=N\Nc2nnc(-c3ccccc3)c(=O)[nH]2)c1` has a displacement of -6.8%.
`CC(C)C1=NN2C(=N)/C(=C/c3ccc(-c4cccc([N+](=O)[O-])c4)o3)C(=O)N=C2S1` was tested, and the displacement was 173%.
`CCOc1ccc(CN2CCN(C(=O)c3ccco3)CC2)cc1` gave a displacement of 9%.
With `CC(=O)N/C(=C\c1ccccc1)C(=O)NCC(=O)O` the displacement was -6.9%.
`Cc1sc(NC(=O)c2sc3ccccc3c2Cl)c(C(N)=O)c1C` gave a displacement of -3.2%.
`O=C1/C(=C/Nc2ccccc2NS(=O)(=O)c2ccccc2)CCc2ccccc21` was tested, and the displacement was 10.4%.
In the case of `C=CCn1c(SCc2ccc(C(=O)NCCO)cc2)nc2sc3c(c2c1=O)CCCC3`, the displacement is reported as 19.3%.
`OCCCNC(Nc1ccc(Cl)cc1)=C(c1ccccc1)c1ccccc1` gave a displacement of -5.7%.
`COc1ccccc1N/C=C/C(=O)c1ccc(Cl)cc1` was tested, and the displacement was -4.5%.
